The source gives many values for each of these; only a part stands here.
System: 766 cancer cell lines
Assay: Large-scale cell-line viability measurements (766 cancer cell lines, 72 h, AUC)
Type: cell-based, human
Method: Cell lines were treated for 72 hours with concentrations ranging from 66.4 μM-2 nM in 2-fold step dilutions.
To characterize cellular sensitivity to DNMDP further, 766 genomically characterized cancer cell lines were screened for DMNDP sensitivity at concentrations ranging from 66.4 μM to 2 nM in 2-fold dilution steps for 72 hours. From these cell lines, 22 cell lines were categorized as sensitive with a robust Z-score lower than −4, which represented multiple lineages including multiple melanoma cell lines, amongst others (Table 1).
The sensitivity of […] cancer cell lines (CCLs) was measured drawn from 23 different lineages to DNMDP. Each cell line was plated in its preferred media in white opaque 1536-plates at a density of 500 cells/well. After incubating overnight, DNMDP was added by acoustic transfer at 16 concentrations ranging from 66.4 μM-2 nM in 2-fold steps in duplicate (Labcyte Echo 555, Labcyte Inc., Sunnyvale, Calif.). After 72 hours treatment, cellular ATP levels were measured as a surrogate for viability (CELLTITERGLO®, Promega Corporation, Madison, Wis.) according to manufacturer's protocols using a ViewLux Microplate Imager (PerkinElmer, Waltham, Mass.) and normalized to background (media-only) and vehicle (DMSO)-treated control wells.
Concentration response curves were fit using nonlinear fits to 2- or 3-parameter sigmoid functions through all 16 concentrations with the low-concentration asymptote set to the DMSO-normalized value, and an optimal 8-point dose curve spanning the range of compound-sensitivity was identified. The area under the 8-point dose curve (AUC) was computed by numeric integration as a metric for sensitivity for further analysis. Similar sensitivity measurements have been obtained for a collection of 480 other compounds, enabling analyses that identify cell lines responding uniquely to DNMDP (see Broad Institute Cancer Therapeutics Response Portal, a dataset to identify comprehensively relationships between genetic and lineage features of human cancer cell lines and small-molecule sensitivities for complete list of compounds).

[1] = cell line JVM3, HAEMATOPOIETIC AND LYMPHOID TISSUE, 72 hours
[2] = cell line K562 (HAEMATOPOIETIC AND LYMPHOID TISSUE)
[3] = cell line KARPAS422, HAEMATOPOIETIC AND LYMPHOID TISSUE, 72 hours
[4] = cell line KARPAS620 (HAEMATOPOIETIC AND LYMPHOID TISSUE)
[5] = cell line KASUMI1 (HAEMATOPOIETIC AND LYMPHOID TISSUE)
[6] = cell line KE37, HAEMATOPOIETIC AND LYMPHOID TISSUE, 72 hours
[7] = cell line KE97, HAEMATOPOIETIC AND LYMPHOID TISSUE, 72 hours
[8] = cell line KELLY (AUTONOMIC GANGLIA)
[9] = cell line KG1C, CENTRAL NERVOUS SYSTEM, 72 hours
[10] = cell line KM12 (LARGE INTESTINE)
[11] = cell line KMBC2 (URINARY TRACT)
[12] = cell line KMH2 (HAEMATOPOIETIC AND LYMPHOID TISSUE)
[13] = cell line KMS21BM, HAEMATOPOIETIC AND LYMPHOID TISSUE, 72 hours
[14] = cell line KMS26 (HAEMATOPOIETIC AND LYMPHOID TISSUE)
[15] = cell line KNS81 (CENTRAL NERVOUS SYSTEM)
[16] = cell line KPL1, BREAST, 72 hours
[17] = cell line KU812 (HAEMATOPOIETIC AND LYMPHOID TISSUE)
[18] = cell line KU1919 (URINARY TRACT)
[19] = cell line KYM1, SOFT TISSUE, 72 hours
[20] = cell line KYO1, HAEMATOPOIETIC AND LYMPHOID TISSUE, 72 hours
[21] = cell line L363 (HAEMATOPOIETIC AND LYMPHOID TISSUE)
[22] = cell line L428 (HAEMATOPOIETIC AND LYMPHOID TISSUE)
[23] = cell line LCLC97TM1, LUNG, 72 hours
[24] = cell line LN18 (CENTRAL NERVOUS SYSTEM)

`CCN(CC)c1ccc(C2=NNC(=O)CC2C)cc1[N+](=O)[O-]` (centres unmarked) [DNMDP, 6-(4-(diethylamino)-3-nitrophenyl)-5-methyl-4,5-dihydropyridazin-3(2H)-one] was tested, and the “Robust Z-score” value (cell line JURLMK1, HAEMATOPOIETIC AND LYMPHOID TISSUE, 72 hours) was 1.551, the “DNMDP AUC” value [1] was 7.961 and the “Robust Z-score” value [1] was 1.392. For the same molecule, the “DNMDP AUC” value [2] was 6.7319, the “Robust Z-score” value [2] was 0.1021 and the “DNMDP AUC” value [3] was 7.2487. For the same molecule, the “Robust Z-score” value [3] was 0.6445, the “DNMDP AUC” value [4] was 6.5931 and the “Robust Z-score” value [4] was −0.04361. The “DNMDP AUC” value [5] was 6.8439, the “Robust Z-score” value [5] was 0.2196 and the “DNMDP AUC” value [6] was 8.1163. For the same molecule, the “Robust Z-score” value [6] was 1.555, the “DNMDP AUC” value (cell line KE39 (STOMACH)) was 6.9103 and the “Robust Z-score” value (cell line KE39 (STOMACH)) was 0.2893. For the same molecule, the “DNMDP AUC” value [7] was 7.1187, the “Robust Z-score” value [7] was 0.5081 and the “DNMDP AUC” value [8] was 6.9352. For the same molecule, the “Robust Z-score” value [8] was 0.3155, the “DNMDP AUC” value [9] was 7.238 and the “Robust Z-score” value [9] was 0.6333. For the same molecule, the “DNMDP AUC” value (cell line KLE (ENDOMETRIUM)) was 6.9584, the “Robust Z-score” value (cell line KLE (ENDOMETRIUM)) was 0.3398 and the “DNMDP AUC” value [10] was 7.0792. The “Robust Z-score” value [10] was 0.4666, the “DNMDP AUC” value [11] was 6.7837 and the “Robust Z-score” value [11] was 0.1565. The “DNMDP AUC” value [12] was 6.7155, the “Robust Z-score” value [12] was 0.08486 and the “DNMDP AUC” value (cell line KMRC1 (KIDNEY)) was 6.8362. The “Robust Z-score” value (cell line KMRC1 (KIDNEY)) was 0.2116, the “DNMDP AUC” value [13] was 8.3309 and the “Robust Z-score” value [13] was 1.78. For the same molecule, the “DNMDP AUC” value [14] was 6.5778, the “Robust Z-score” value [14] was −0.05967 and the “DNMDP AUC” value (cell line KNS62 (LUNG)) was 7.0253. The “Robust Z-score” value (cell line KNS62 (LUNG)) was 0.41, the “DNMDP AUC” value [15] was 6.7793 and the “Robust Z-score” value [15] was 0.1518. For the same molecule, the “DNMDP AUC” value (cell line KP3 (PANCREAS)) was 6.909, the “Robust Z-score” value (cell line KP3 (PANCREAS)) was 0.288 and the “DNMDP AUC” value (cell line KP4 (PANCREAS)) was 6.7102. For the same molecule, the “Robust Z-score” value (cell line KP4 (PANCREAS)) was 0.0793, the “DNMDP AUC” value [16] was 7.1178 and the “Robust Z-score” value [16] was 0.5071. The “DNMDP AUC” value [17] was 6.8063, the “Robust Z-score” value [17] was 0.1802 and the “DNMDP AUC” value [18] was 6.8061. For the same molecule, the “Robust Z-score” value [18] was 0.18, the “DNMDP AUC” value [19] was 8.4417 and the “Robust Z-score” value [19] was 1.897. The “DNMDP AUC” value [20] was 7.1048, the “Robust Z-score” value [20] was 0.4935 and the “DNMDP AUC” value (cell line KYSE30 (OESOPHAGUS)) was 6.8825. For the same molecule, the “Robust Z-score” value (cell line KYSE30 (OESOPHAGUS)) was 0.2602, the “DNMDP AUC” value (cell line KYSE70 (OESOPHAGUS)) was 6.7428 and the “Robust Z-score” value (cell line KYSE70 (OESOPHAGUS)) was 0.1135. For the same molecule, the “DNMDP AUC” value (cell line KYSE140 (OESOPHAGUS)) was 6.836, the “Robust Z-score” value (cell line KYSE140 (OESOPHAGUS)) was 0.2113 and the “DNMDP AUC” value (cell line KYSE150 (OESOPHAGUS)) was 7.0859. The “Robust Z-score” value (cell line KYSE150 (OESOPHAGUS)) was 0.4737, the “DNMDP AUC” value (cell line KYSE180 (OESOPHAGUS)) was 7.0541 and the “Robust Z-score” value (cell line KYSE180 (OESOPHAGUS)) was 0.4403. For the same molecule, the “DNMDP AUC” value (cell line KYSE450 (OESOPHAGUS)) was 6.6505, the “Robust Z-score” value (cell line KYSE450 (OESOPHAGUS)) was 0.01664 and the “DNMDP AUC” value (cell line KYSE510 (OESOPHAGUS)) was 6.9987. For the same molecule, the “Robust Z-score” value (cell line KYSE510 (OESOPHAGUS)) was 0.3821, the “DNMDP AUC” value (cell line KYSE520 (OESOPHAGUS)) was 6.8305 and the “Robust Z-score” value (cell line KYSE520 (OESOPHAGUS)) was 0.2056. The “DNMDP AUC” value [21] was 7.0473, the “Robust Z-score” value [21] was 0.4331 and the “DNMDP AUC” value [22] was 6.5828. For the same molecule, the “Robust Z-score” value [22] was −0.05442, the “DNMDP AUC” value (cell line LC1SQSF (LUNG)) was 6.8361 and the “Robust Z-score” value (cell line LC1SQSF (LUNG)) was 0.2115. For the same molecule, the “DNMDP AUC” value [23] was 7.2086, the “Robust Z-score” value [23] was 0.6024 and the “DNMDP AUC” value (cell line LCLC103H (LUNG)) was 6.7269. For the same molecule, the “Robust Z-score” value (cell line LCLC103H (LUNG)) was 0.09683, the “DNMDP AUC” value (cell line LK2 (LUNG)) was 6.8724 and the “Robust Z-score” value (cell line LK2 (LUNG)) was 0.2496. The “DNMDP AUC” value [24] was 6.6106 and the “Robust Z-score” value [24] was −0.02524.

Reference: patent publication US11207320B2, “Compositions and methods for cancer expressing PDE3A or SLFN12” (The Broad Institute, Inc., priority 2015, dated 2021)
